This passage reports z-score results from PubChem BioAssay AID488969 (Vanderbilt High Throughput Screening Facility, 2010).

Each structure is given as a SMILES string. Values joined by “and” are separate entries in the source; they are usually repeats but may differ in a detail not shown here. Equal values may be shown once. The full ranking holds about 110,000 compounds; the median of “z-score” is about -0.1, and the highest 2% start at about 2. The list shows a part of the results.

The assay concerns the target Metabotropic glutamate receptor 8 (Rattus norvegicus) (UniProt P70579). The assay can be described thus: rat mGluR8 modulators via GIRK flux, primary screen, cell-based, thallium flux, HTS (AID 488969). To be noted: HEK293 rat mGluR8, GIRK (G protein-gated inwardly rectifying potassium channel) thallium flux, FluoZin2; at 10 µM; stronger effect = higher value; submaximal glutamate (EC20) added with thallium.
Sequence of UniProt P70579 (P70579 whole entry, looked up): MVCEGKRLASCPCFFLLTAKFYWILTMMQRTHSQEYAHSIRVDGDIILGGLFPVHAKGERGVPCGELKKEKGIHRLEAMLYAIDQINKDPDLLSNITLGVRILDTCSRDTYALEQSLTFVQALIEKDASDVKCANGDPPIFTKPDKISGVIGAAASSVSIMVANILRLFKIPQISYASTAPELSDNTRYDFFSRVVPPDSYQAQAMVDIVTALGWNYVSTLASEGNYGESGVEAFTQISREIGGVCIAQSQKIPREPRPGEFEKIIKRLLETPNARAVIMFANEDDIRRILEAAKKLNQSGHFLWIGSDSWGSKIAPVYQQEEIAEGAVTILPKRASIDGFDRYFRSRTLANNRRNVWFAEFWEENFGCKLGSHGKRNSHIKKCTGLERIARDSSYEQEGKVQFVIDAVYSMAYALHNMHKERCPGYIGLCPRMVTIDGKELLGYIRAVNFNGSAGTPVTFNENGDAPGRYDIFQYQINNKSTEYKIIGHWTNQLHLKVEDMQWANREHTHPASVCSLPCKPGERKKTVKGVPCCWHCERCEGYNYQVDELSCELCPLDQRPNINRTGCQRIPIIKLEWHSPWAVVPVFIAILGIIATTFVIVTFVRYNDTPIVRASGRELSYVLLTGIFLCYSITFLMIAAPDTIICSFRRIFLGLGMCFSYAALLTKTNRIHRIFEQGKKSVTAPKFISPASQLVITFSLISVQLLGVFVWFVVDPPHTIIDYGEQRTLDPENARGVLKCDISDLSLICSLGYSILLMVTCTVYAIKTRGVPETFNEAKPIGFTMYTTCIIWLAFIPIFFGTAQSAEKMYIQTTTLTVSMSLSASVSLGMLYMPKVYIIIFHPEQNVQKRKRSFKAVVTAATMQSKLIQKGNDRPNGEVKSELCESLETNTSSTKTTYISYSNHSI
As to `CCOc1ccc(-c2c(C#N)c(N)nc3c2c(=O)n(C)c(=O)n3C)cc1OC`, the z-score was -0.0702. To `COc1ccc2nc(NC(=O)CCN3C(=S)NC(C)(C)CC3C)sc2c1` (stereo unspecified) belongs -0.122. The figure for `Cc1nn(Cc2ccc([N+](=O)[O-])cc2)c(=O)n1-c1cccc(F)c1` is -0.186; for `CCOC(=O)c1sc(=S)n(-c2ccc(Cl)cc2)c1C` it is -0.721. With `COc1ccc(CCNC(=O)c2cc(-c3ccc4c(c3)OCO4)on2)cc1OC`, the z-score was -0.214.

Regarding `CCS(=O)(=O)N1CCCC(C(=O)NC2CCC(C)CC2)C1` (stereo unspecified), the z-score is -0.361. To `CCN(CC)CCNC(=O)c1ccccn1` belongs -0.334.

In the case of `CCOC(=O)c1c(C)oc2c1c(CN1CCN(C(=O)OCC)CC1)c(O)c1ccccc12`, the z-score is 0.242.

On to `COc1cc(C2C3C(=O)N(Cc4ccccc4)C(=O)C3ON2c2ccccc2)cc(OC)c1O` (stereo unspecified), for which the z-score was found to be 0.819. To `COc1ccc2c(c1)SCC(=O)N2C` belongs -0.287; to `Cc1ccc(CCNc2ccccc2C)cn1`, -0.339; to `Cc1[nH]c2ccccc2c1Cc1n[nH]c(=S)n1C`, -0.246. Consider `Cc1ccc(-c2nc(C)sc2CC(=O)O)cc1`, for which the z-score is -0.887. The figure for `CCOC(=O)CN1CC23C=CC(O2)C(C(=O)Nc2ccc(OC)cc2OC)C3C1=O` (stereo unspecified) is 0.0644; for `CC(=O)N1CCN(c2ccc(NC(=O)c3ccc4c(c3)OCO4)cc2)CC1` it is -0.315. The figure for `COc1cc(NC(=O)c2ccco2)c(OC)cc1NC(=O)CSc1ncc(-c2ccc(F)cc2)[nH]1` is -0.182; for `COc1cccc(-c2ccc(=O)n(CC(=O)Nc3ccc(C(=O)N4CCCC4)cc3)n2)c1` it is 0.0557; for `O=C(c1cc(-c2ccccc2)nc2ccccc12)N1CCN(c2ccccn2)CC1` it is -0.599. To `CC1(C)Cc2c(C#N)c(N3CCN(C(=O)c4ccco4)CC3)nc(-c3ccco3)c2CS1` belongs 0.157; to `N#C/C(=C\c1ccc(Sc2nc3ccccc3[nH]2)o1)c1ccccc1`, -0.593; to `CC(C)Oc1ccc(CNC(=S)N/N=C/c2cccnc2)cc1`, -0.416. On to `COC(=O)c1cccc(-n2c(C)cc(C=O)c2C)c1C`, for which the z-score was -0.132. To `Cc1ccc(C(=O)Nc2cccc(C(=O)N3CCN(C)CC3)c2)cc1` belongs -0.156. The figure for `Oc1ccc(CN2CCc3ccccc3C2)c2cccnc12` is 0.165. Regarding `Cc1nc(SCCC(C)C)c([N+](=O)[O-])[nH]1`, the z-score turned out to be 0.0363. As to `CN1CCN(c2ccccc2NC(=O)c2cc3ccccc3o2)CC1`, the z-score is -0.408. The figure for `C=CCNc1sc(C(=O)c2ccc(Br)s2)c(N)c1C#N` is -1.5; for `O=C(CCC(=O)N(CC(=O)NC1CCCC1)Cc1ccc2c(c1)OCO2)Nc1ccccn1` it is 0.0849; for `O=C(Cc1cccs1)Nc1cccc(C(=O)Nc2ccco2)c1` it is -0.242.

For the compound `Cc1ccc(C)c(S(=O)(=O)NCCOC(=O)Nc2sc(=S)n(C)c2C)c1`, the z-score is -0.171. The figure for `O=C(Cc1cc(=O)[nH][nH]1)N/N=C/C=C/c1ccccc1` is 0.0229 and -0.224; for `CCOC(=O)c1c(NC(=O)CCN2C(=O)c3ccccc3C2=O)sc(C(=O)OC(C)C)c1C` it is -0.193.

In the case of `CCOC(=O)C1=C(C)Nc2ccc(C)cc2S1`, the z-score was -0.2.

As to `Cc1nn(-c2nc3ccccc3s2)c(N)c1-c1ccccc1`, the z-score is -0.0629.

Take `Nc1nc(SCC(=O)NCCCO)nc2sc3c(c12)CCC3`: the z-score is 1.08. To `COc1ccc(-c2nnc(N(C)C(=O)C3CCOC3)s2)cc1` (stereo unspecified) belongs -0.205; to `CC(=O)Nc1c(O)nc(SCC(=O)Nc2c(C)cccc2C)[nH]c1=O`, 0.093; to `COc1ccc(NC(=O)c2csc3c2CCCC3)cc1`, -1.23. The figure for `CCCCN(C)c1ccc([N+](=O)[O-])cc1` is -0.278. To `N#Cc1cc(-c2ccc(Cl)cc2)cnc1Sc1ccc(F)cc1` belongs 0.135.

For the compound `O=C(C1CCCN(S(=O)(=O)c2ccccc2)C1)N1CCCc2ccccc21` (stereo unspecified), the z-score was -0.095. The figure for `COc1cc(C)ccc1OCCCOc1cc(C)ccc1Cl` is -0.174; for `COc1cc(OC)nc(NC(=O)CN2CCN(c3ccc(F)cc3)CC2)n1` it is 0.00189; for `Cc1ccc(-n2c(SCC(=O)N3CC(=O)Nc4ccccc43)nc3ccccc3c2=O)cc1C` it is -0.183. To `COc1ccc(-c2nnc(NC(=O)c3ccc(S(=O)(=O)N4COCC4(C)C)cc3)o2)cc1` belongs 1.22. Compound `CN(C)c1ccc(C(=O)NCC2CCCO2)cc1` (stereo unspecified) came in with a z-score of 0.549. Take `COc1ccc(NC(=S)N2CCC(N(C)CCN3CCOCC3)CC2)cc1`: the z-score worked out at 0.316. As to `Cc1cc(C(=O)OCC(=O)Nc2nnc(C(C)C)s2)c2ccccc2n1`, the z-score is -0.717. To `O=C1C2C3CCC(C3)C2C(=O)N1Cc1ccccc1` (stereo unspecified) belongs -0.615; to `CCOC(=O)c1cc(=O)n(-c2ccc(Cl)cc2C)[nH]1`, -0.311. The figure for `O=C1CS/C(=C\[N+](=O)[O-])N1c1ccc(OC(F)(F)F)cc1` is -0.124; for `COc1ccc(C(=O)Nc2ccccc2-c2ccccc2)cc1Cl` it is 0.0125; for `CCS(=O)(=O)c1ccc(-c2csc(-c3ccc(Cl)cc3)n2)c(Cl)c1Cl` it is 0.151.

For the compound `CC1=CN2C(=N)/C(=C/c3cn(CCCOc4ccccc4C)c4ccccc34)C(=O)N=C2S1`, the z-score is 0.266. To `COc1ccc(CC(=O)NCC(=O)N/N=C/c2ccco2)cc1` belongs 0.186; to `COC(=O)c1cc2n(n1)CCN(Cc1ccc(OC)cc1)C2=O`, 0.0563.

Consider `Cc1cccc(C(=O)NCC(=O)OCC(=O)N2CC3(C)CC2CC(C)(C)C3)c1` (stereo unspecified), for which the z-score was -0.39. Turning to `O=C(CCCCCN1C(=O)CCC1=O)Nc1ccc2c(c1)OCCO2`, the z-score was 0.526. The figure for `COCCn1c(SCC(=O)N2CC(=O)Nc3ccccc32)nc2ccccc21` is 0.0593; for `CN(Cc1cccs1)CC(O)COCc1ccco1` (stereo unspecified) it is 0.393; for `O=c1[nH]c2ccccc2cc1CN(c1ccccc1)S(=O)(=O)c1ccccc1` it is 0.569.

In the case of `COc1ccc(F)cc1S(=O)(=O)N1CCN(Cc2ccc3c(c2)OCO3)CC1`, the z-score was -0.332.

As to `Cc1cccc(NC(=S)NCc2ccc3c(c2)OCO3)c1C`, the z-score is -0.18. The figure for `COc1cc(-c2nc(-c3ccccc3)c(-c3cccs3)[nH]2)cc(OC)c1O` is 1.07; for `Cn1c(=O)[nH]c(=O)c2c1nc(N1CCCCCC1)n2CC(N)=O` it is -0.295; for `COc1ccc(C(=O)N(C(C)C)C(C)C)c(OC)c1` it is 0.14.

On to `CCOc1cc(-c2ccc(N)c(OCC)c2)ccc1N`, for which the z-score was -1.73. In the case of `O=C(Nc1cccc(F)c1)c1ccc2c(c1)OCO2`, the z-score was -0.185.

`Cc1nc(N2CCN(C)CC2)c2sc(=S)n(C)c2n1` showed a z-score of 0.624. The figure for `Cc1cccc(-c2n[nH]c([N+](=O)[O-])n2)c1` is 0.192; for `Cc1ccc(C)c(S(=O)(=O)NCc2ccc(C(=O)NCc3ccco3)cc2)c1` it is -0.11.
